This is one part of the list. The list includes weakly bound sequences.
Target: MaxL homodimer (UniProt P61244)
Test: universal protein-binding microarray (PBM)
Details: PBS-based mixture, 10 nM His-tagged protein dimer, 2% milk, 200 ng/uL BSA, 50 ng/uL salmon testes DNA, 0.02% TX-100; detection with Alexa 488 anti-His …; high values mean tight binding; most listed sequences are background and not binding sites; double strand, one strand shown

UniProt P61244, sequence (P61244 whole entry): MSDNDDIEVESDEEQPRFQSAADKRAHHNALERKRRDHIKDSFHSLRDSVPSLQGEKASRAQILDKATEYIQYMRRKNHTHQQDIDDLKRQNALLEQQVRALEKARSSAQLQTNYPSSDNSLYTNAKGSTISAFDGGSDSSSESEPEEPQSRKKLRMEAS

How did the binding signal (normalized occupancy) turn out when CAGCCGCA was run?
Its binding signal (normalized occupancy) is 0.0718.

For CACCTAAG, which binding signal (normalized occupancy) is on record?
The binding signal (normalized occupancy) was 0.0743.

How did the binding signal (normalized occupancy) turn out when CGGTTCAA was run?
The binding signal (normalized occupancy) was 0.0686.

With ACCAGGCG as the sequence, how does the binding signal (normalized occupancy) read?
Its binding signal (normalized occupancy) is 0.0829.

How did the binding signal (normalized occupancy) turn out when CGTAGTTC was run?
The binding signal (normalized occupancy) was 0.0706.

For CGGAAGAC, which binding signal (normalized occupancy) is on record?
The binding signal (normalized occupancy) was 0.068.

CTATTTAC was tested. Which binding signal (normalized occupancy) did it give?
Its binding signal (normalized occupancy) is 0.0763.

AAGGCGTG was tested. Which binding signal (normalized occupancy) did it give?
Its binding signal (normalized occupancy) is 0.0901.

How did the binding signal (normalized occupancy) turn out when GCACTTGA was run?
The binding signal (normalized occupancy) was 0.073.

How did the binding signal (normalized occupancy) turn out when GCACTACC was run?
Its binding signal (normalized occupancy) is 0.0774.

Which binding signal (normalized occupancy) does the source give for ACGGTCAC here?
Its binding signal (normalized occupancy) is 0.0774.

Which binding signal (normalized occupancy) does the source give for ACGTGTCG here?
The binding signal (normalized occupancy) was 0.106.

CAGTTACA was tested. Which binding signal (normalized occupancy) did it give?
Its binding signal (normalized occupancy) is 0.0725.

Which binding signal (normalized occupancy) does the source give for AGTCGAGA here?
Its binding signal (normalized occupancy) is 0.071.

With CTTTATGA as the sequence, how does the binding signal (normalized occupancy) read?
Its binding signal (normalized occupancy) is 0.0763.

With AACAATGG as the sequence, how does the binding signal (normalized occupancy) read?
The binding signal (normalized occupancy) was 0.0787.

How did the binding signal (normalized occupancy) turn out when GGGGATAC was run?
Its binding signal (normalized occupancy) is 0.0797.

For GACTGTCC, which binding signal (normalized occupancy) is on record?
The binding signal (normalized occupancy) was 0.0743.

How did the binding signal (normalized occupancy) turn out when GGTGTAAA was run?
The binding signal (normalized occupancy) was 0.0851.

CGTTAATA was tested. Which binding signal (normalized occupancy) did it give?
Its binding signal (normalized occupancy) is 0.0789.

With TCTAGGAA as the sequence, how does the binding signal (normalized occupancy) read?
The binding signal (normalized occupancy) was 0.0765.

GACGTAGC was tested. Which binding signal (normalized occupancy) did it give?
Its binding signal (normalized occupancy) is 0.0744.

CATTTAGA was tested. Which binding signal (normalized occupancy) did it give?
The binding signal (normalized occupancy) was 0.0764.

How did the binding signal (normalized occupancy) turn out when ATGGGCAA was run?
The binding signal (normalized occupancy) was 0.0785.

Which binding signal (normalized occupancy) does the source give for GCCCATCA here?
The binding signal (normalized occupancy) was 0.0786.

For GCCTACGC, which binding signal (normalized occupancy) is on record?
The binding signal (normalized occupancy) was 0.0737.

With TTGCCCAA as the sequence, how does the binding signal (normalized occupancy) read?
The binding signal (normalized occupancy) was 0.07.

Which binding signal (normalized occupancy) does the source give for ACCCTTCT here?
Its binding signal (normalized occupancy) is 0.0744.

With ATCCGTGG as the sequence, how does the binding signal (normalized occupancy) read?
The binding signal (normalized occupancy) was 0.078.

How did the binding signal (normalized occupancy) turn out when ATCGTACG was run?
The binding signal (normalized occupancy) was 0.0798.

For CCATCCAA, which binding signal (normalized occupancy) is on record?
The binding signal (normalized occupancy) was 0.0825.

With CAAAGCTA as the sequence, how does the binding signal (normalized occupancy) read?
Its binding signal (normalized occupancy) is 0.07.

How did the binding signal (normalized occupancy) turn out when CGATGAGC was run?
The binding signal (normalized occupancy) was 0.0714.

Which binding signal (normalized occupancy) does the source give for ACCGTTTC here?
Its binding signal (normalized occupancy) is 0.0728.

Which binding signal (normalized occupancy) does the source give for AGATTGCG here?
Its binding signal (normalized occupancy) is 0.0743.

For GAAAAAGA, which binding signal (normalized occupancy) is on record?
The binding signal (normalized occupancy) was 0.0746.

How did the binding signal (normalized occupancy) turn out when GTAATCTA was run?
The binding signal (normalized occupancy) was 0.0799.

With GTCGTCCA as the sequence, how does the binding signal (normalized occupancy) read?
The binding signal (normalized occupancy) was 0.0757.

For CCCAGGTC, which binding signal (normalized occupancy) is on record?
The binding signal (normalized occupancy) was 0.0779.

AGCCACTC was tested. Which binding signal (normalized occupancy) did it give?
The binding signal (normalized occupancy) was 0.0757.

ACGACATG was tested. Which binding signal (normalized occupancy) did it give?
The binding signal (normalized occupancy) was 0.088.

For AGGACAAC, which binding signal (normalized occupancy) is on record?
Its binding signal (normalized occupancy) is 0.0727.

Which binding signal (normalized occupancy) does the source give for AAGGGACC here?
Its binding signal (normalized occupancy) is 0.068.

For CTCTGTGC, which binding signal (normalized occupancy) is on record?
Its binding signal (normalized occupancy) is 0.0769.

For CATATGTC, which binding signal (normalized occupancy) is on record?
Its binding signal (normalized occupancy) is 0.0943.

Which binding signal (normalized occupancy) does the source give for AATTACCG here?
The binding signal (normalized occupancy) was 0.0742.

Which binding signal (normalized occupancy) does the source give for AGGTCACG here?
The binding signal (normalized occupancy) was 0.082.

With GCGGGGAA as the sequence, how does the binding signal (normalized occupancy) read?
Its binding signal (normalized occupancy) is 0.081.

Which binding signal (normalized occupancy) does the source give for AAATCGGG here?
Its binding signal (normalized occupancy) is 0.0734.

For GAATTTGC, which binding signal (normalized occupancy) is on record?
The binding signal (normalized occupancy) was 0.072.

With ATGTCCCA as the sequence, how does the binding signal (normalized occupancy) read?
Its binding signal (normalized occupancy) is 0.0746.

AACGTTTC was tested. Which binding signal (normalized occupancy) did it give?
The binding signal (normalized occupancy) was 0.0739.

CTGGTTCC was tested. Which binding signal (normalized occupancy) did it give?
Its binding signal (normalized occupancy) is 0.072.

For CTGGCGTC, which binding signal (normalized occupancy) is on record?
Its binding signal (normalized occupancy) is 0.0668.

For GTAAGCAC, which binding signal (normalized occupancy) is on record?
The binding signal (normalized occupancy) was 0.0777.

How did the binding signal (normalized occupancy) turn out when AAGAGGGG was run?
Its binding signal (normalized occupancy) is 0.0703.

With GCGCTACC as the sequence, how does the binding signal (normalized occupancy) read?
The binding signal (normalized occupancy) was 0.0751.

How did the binding signal (normalized occupancy) turn out when GTCCCGGA was run?
The binding signal (normalized occupancy) was 0.0658.

For CACACTTA, which binding signal (normalized occupancy) is on record?
Its binding signal (normalized occupancy) is 0.0817.

How did the binding signal (normalized occupancy) turn out when AGTTCCTC was run?
The binding signal (normalized occupancy) was 0.0733.

With AAACTAGG as the sequence, how does the binding signal (normalized occupancy) read?
Its binding signal (normalized occupancy) is 0.0774.

With CTTAACAA as the sequence, how does the binding signal (normalized occupancy) read?
The binding signal (normalized occupancy) was 0.0707.

Which binding signal (normalized occupancy) does the source give for GATCCTCC here?
The binding signal (normalized occupancy) was 0.0751.

Which binding signal (normalized occupancy) does the source give for CGTACCGC here?
Its binding signal (normalized occupancy) is 0.0699.

ACAACGGC was tested. Which binding signal (normalized occupancy) did it give?
Its binding signal (normalized occupancy) is 0.0735.

GTGTGCGA was tested. Which binding signal (normalized occupancy) did it give?
The binding signal (normalized occupancy) was 0.082.

CACATCGA was tested. Which binding signal (normalized occupancy) did it give?
Its binding signal (normalized occupancy) is 0.0843.

With CCCCTCCA as the sequence, how does the binding signal (normalized occupancy) read?
Its binding signal (normalized occupancy) is 0.0846.

With GCCTCCAA as the sequence, how does the binding signal (normalized occupancy) read?
The binding signal (normalized occupancy) was 0.0672.

Which binding signal (normalized occupancy) does the source give for AATTAACA here?
The binding signal (normalized occupancy) was 0.0755.

CGAGTCCG was tested. Which binding signal (normalized occupancy) did it give?
Its binding signal (normalized occupancy) is 0.0718.

AGATTCTA was tested. Which binding signal (normalized occupancy) did it give?
Its binding signal (normalized occupancy) is 0.0793.

Which binding signal (normalized occupancy) does the source give for CCAAATAG here?
Its binding signal (normalized occupancy) is 0.0764.

AACGATGT was tested. Which binding signal (normalized occupancy) did it give?
Its binding signal (normalized occupancy) is 0.0802.

How did the binding signal (normalized occupancy) turn out when AGTAGCAT was run?
Its binding signal (normalized occupancy) is 0.0829.

ATGGTAAG was tested. Which binding signal (normalized occupancy) did it give?
Its binding signal (normalized occupancy) is 0.0773.

For CGCTAACA, which binding signal (normalized occupancy) is on record?
Its binding signal (normalized occupancy) is 0.082.

Which binding signal (normalized occupancy) does the source give for AAGACCTC here?
Its binding signal (normalized occupancy) is 0.07.

Which binding signal (normalized occupancy) does the source give for CCATACCC here?
The binding signal (normalized occupancy) was 0.081.

For CCTTCTCA, which binding signal (normalized occupancy) is on record?
The binding signal (normalized occupancy) was 0.0714.

With TCGTGTCA as the sequence, how does the binding signal (normalized occupancy) read?
The binding signal (normalized occupancy) was 0.0857.

With TATATAGA as the sequence, how does the binding signal (normalized occupancy) read?
Its binding signal (normalized occupancy) is 0.0858.

For TCACAACA, which binding signal (normalized occupancy) is on record?
The binding signal (normalized occupancy) was 0.0812.

How did the binding signal (normalized occupancy) turn out when GGGCATCA was run?
Its binding signal (normalized occupancy) is 0.0773.

How did the binding signal (normalized occupancy) turn out when CCCAAAAC was run?
Its binding signal (normalized occupancy) is 0.0732.

CACAAGGG was tested. Which binding signal (normalized occupancy) did it give?
The binding signal (normalized occupancy) was 0.0805.

From paper PMC4242493
